# Experimental data from PubChem BioAssay AID686978 (National Center for Advancing Translational Sciences (NCATS), 2013).
# About 64,000 (15%) of roughly 420,000 compounds were called active. This list was built around the results that the source calls inconclusive (neither active nor inactive); the mix of calls is not that of the screen. Calls follow the shape of the dose curve; as a rule, active = well fitted inhibition curve with a large enough effect; inconclusive = small, poorly fitted or top-dose-only effect; inactive = flat fitted curve, though single readings scatter. No potency is given beside an inconclusive call; the fits are too rough.
# Assay: qHTS for Inhibitors of human tyrosyl-DNA phosphodiesterase 1 (TDP1): qHTS in cells in absence of CPT; also: nearly all actives have a fitted effect of over 55% in size
# Conditions: DT40 Tdp1-/- hTDP1 cells, no CPT, ATP luminescence, 48 h; activity change, negative = growth inhibition: at 46.2 µM (top of the series) unless noted
# Outline: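 Stably hTDP1-transfected Tdp1-null chicken DT40 cells were treated with library compounds minus camptothecin and grown for at least 48 hr at 37 °C, after which cellular ATP was quantified by luminescence.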
# % is scaled to controls: 0 for no effect and ±100 for the full control effect; potency is read from the fitted curve at half-maximal effect; tags tell the direction and shape of the fitted curve.
SMILES,Potency,"activity change, negative = growth inhibition"
COc1ccc(N2C(=O)C(Cl)=C(Nc3c(C)n(C)n(-c4ccccc4)c3=O)C2=O)cc1,active: 5.8 µM,–
Cc1ccc(C(C)C)c(OCC(=O)NC(=S)Nc2ccccc2N2CCOCC2)c1,active: 16.4 µM,–
COC(=O)c1ccc2c(c1)C(=O)/C(=C/c1ccc(C)cc1)O2,active: 13 µM,–
CC(=O)c1ccc(OC(=O)COc2ccccc2Cl)cc1,–,inactive: 18.4%
CN(C)c1ncc2nc(-c3cccs3)c(=O)n(CCC#N)c2n1,–,inactive: -11.5%
CCc1cnc2c(c1SCC(=O)N1CCCCC1)c(=O)n(C)c(=O)n2C,"inconclusive [inhibitor, single point]",–
COc1ccc(NC(=O)CSc2nc(-c3cccs3)cc(C(F)(F)F)n2)cc1OC,active: 2.31 µM,–
COC(=O)C(Nc1nccs1)(OC)C(F)(F)F (stereo unspecified),"inconclusive [inhibitor, single point]",–
Cc1cc(C)c(OCC(=O)NCCCn2nc(C)cc2C)c(C)c1,–,inconclusive: -32.3% [inhibitor]
O=C(CSc1nc2ccccc2nc1Cc1ccccc1)NCc1ccccc1Cl,"inconclusive [inhibitor, partial curve]",–
CN(C(=O)c1ccc(NC(=O)C2CCN(C(=O)OC(C)(C)C)CC2)cc1)C1CC1,"inconclusive [inhibitor, partial curve]",–
COc1ccc(-n2nc(C)cc2Nc2ccccc2C(=O)O)cc1,"inconclusive [inhibitor, single point]",–
COCCOC(=O)C1=C(C)NC(=O)NC1c1cccc2ccccc12 (stereo unspecified),"inconclusive [inhibitor, single point]",–
CCOC(=O)c1ccc(N/C=C/C(=O)c2ccc(OC)c(OC)c2)cc1,"inconclusive [inhibitor, single point]",–
CCC(=O)N1CCc2cc(Br)cc(S(=O)(=O)N3CCC(C(=O)Nc4ccc(OC)cc4)CC3)c21,"inconclusive [inhibitor, single point]",–
COC(=O)c1ccc(N2CCN(C)CC2)c(NC(=O)c2cc3ccccc3o2)c1,active: 23.1 µM,–
CCN(CC)C(=O)Cn1cc(C(=O)C(=O)NCCCN2CCCCC2)c2ccccc21,–,inactive: 2.93%
COCc1cc(=O)n2c([nH]c3ccccc32)c1C#N,"inconclusive [inhibitor, single point]",–
O=[N+]([O-])c1ccc(Cl)c2c1C1C=CCC1C(c1ccccn1)N2 (stereo unspecified),"inconclusive [inhibitor, single point]",–
Cc1noc(C)c1-c1ccc2ncnc(N3CCOCC3)c2c1,"inconclusive [inhibitor, single point]",–
Cc1cccc(OC(C)C(=O)Nc2ncn[nH]2)c1 (stereo unspecified),–,inactive: 6.13%
NC(=O)C1(C(N)=O)OC1c1ccc(Cl)cc1Cl (stereo unspecified),"inconclusive [inhibitor, single point]",–
CCc1ccc(NC(=O)c2ccc3c(O)c(S(=O)(=O)c4ccc(Cl)cc4)c(=O)[nH]c3c2)cc1,–,inactive: 14.2%
CN(CC(=O)Nc1ccccc1Cl)C(=O)C1CCN(S(=O)(=O)c2ccc3c(c2)OCCO3)CC1,"inconclusive [inhibitor, single point]",–

SMILES,Potency,"activity change, negative = growth inhibition"
C#Cc1ccc([C@@H]2C=C(C(=O)Nc3ccccc3)O[C@H](OCC)[C@H]2CCCO)cc1,active: 13 µM,–
CSc1nsc(SC)c1C(=O)Nc1ccc(C)cc1,"inconclusive [inhibitor, single point]",–
COc1cc2cnc(Cl)nc2cc1OC,–,inconclusive: -32.1% [inhibitor]
CCCCN(CC)CCCNC(=O)c1sc2nc(C)cc(C)c2c1-n1cccc1,active: 18.4 µM,–
Cc1ccc2[nH]c(C(=O)O)c(NC(=O)c3ccccc3[N+](=O)[O-])c2c1,"inconclusive [inhibitor, single point]",–
O=C(c1ccccc1)c1cc(-c2ccccn2)c(N2CCOCC2)s1,"inconclusive [inhibitor, single point]",–
CCc1nnc(SCc2ccc([N+](=O)[O-])cc2)nc1CC,–,inactive: -25.8%
CS(=O)(=O)c1ccc(C(=O)NNC(=O)c2cccs2)cc1,–,inactive: 16.7%
CS(=O)(=O)c1ccc(Sc2nc3ccccc3[nH]2)c([N+](=O)[O-])c1,"inconclusive [inhibitor, partial curve, poor fit]",–
CCCC(=O)N1CCN(c2ccc(NC(=O)c3cccs3)cc2)CC1,"inconclusive [inhibitor, single point]",–
C=Cn1cc[n+](CC(=O)c2ccc(Br)cc2)c1,"inconclusive [inhibitor, single point]",–
CCN(CC)c1cc(C)c2cc(NC(=O)c3cccc(OC)c3)ccc2n1,"inconclusive [inhibitor, single point]",–
COc1cc(OC)cc(-c2c(-c3ccc(F)cc3)c3cc(-c4ccc(SC)cc4)ccc3n2C)c1,"inconclusive [inhibitor, single point]",–
Cc1cccc(SCc2noc(C(=O)NC(C)C)c2C(=O)O)c1,–,inactive: 12.7%
Cc1ccccc1CN1CCN(S(=O)(=O)c2ccc(F)cc2)CC1,"inconclusive [inhibitor, single point]",–
CCc1ccc(-c2nc(CSCC(=O)N3CCN(c4ncccn4)CC3)c(C)o2)cc1,"inconclusive [inhibitor, single point]",–
COCCNC(=O)c1cnn2c1NC(c1ccco1)CC2C(F)(F)F (stereo unspecified),–,inactive: 0.772%
CC1Sc2ccc(S(=O)(=O)CCC(=O)Nc3ccc(C(C)C)cc3)cc2NC1=O (stereo unspecified),–,inactive: -29.6%
COC(=O)[C@]1(S(=O)(=O)c2ccccc2)C[C@@H]2ON=C(c3ccc(OC)cc3)[C@@H]2C1,–,inactive: -18.7%
Cc1cc(C)c2nc(SC(C)C(=O)NCC(=O)Nc3ccc(F)c(F)c3F)cc(C)c2c1 (stereo unspecified),"inconclusive [inhibitor, single point]",–
COCCn1c(Cc2ccccc2)nnc1SC(C)C(=O)NC1CC1 (stereo unspecified),–,inactive: 23.1%
CCCCOC(=O)c1ccc(NC(c2ccc(C)cc2)P(=O)(OC)OC)cc1 (stereo unspecified),"inconclusive [inhibitor, single point]",–
COc1ccc(OCCNC(=O)/C=C/c2ccc([N+](=O)[O-])cc2)cc1,"inconclusive [inhibitor, single point]",–
CCOC(=O)[C@]12CCCC=C1N(Cc1ccc3c(c1)OCO3)C(=O)[C@H](CC(=O)NCc1ccc(OC)c(OC)c1)C2,"inconclusive [inhibitor, single point]",–

SMILES,Potency,"activity change, negative = growth inhibition"
CCc1noc(C)c1C(=O)N(CCC(C)C)c1c(N)n(Cc2ccccc2)c(=O)[nH]c1=O,–,inactive: 11.4%
c1cnc(NC2C3CC4CC(C3)CC2C4)nc1 (stereo unspecified),"inconclusive [inhibitor, single point]",–
CCCN(CCC)CCOc1cc(C)ccc1C(C)C,"inconclusive [inhibitor, single point]",–
CCOC(=O)C1CCCN(S(=O)(=O)c2ccc(F)c(C(=O)Nc3ccc(F)c(F)c3)c2)C1 (stereo unspecified),active: 16.4 µM,–
CCCCN1C(=O)C(CC(=O)NCCCN(C)C)CC(C(=O)N(C)C)=C1C (stereo unspecified),–,inactive: -5.65%
COc1ccc(N(C)S(=O)(=O)c2cccc(C(=O)NC3CCCCCC3)c2)cc1,"inconclusive [inhibitor, single point]",–
CC(=O)c1c(CSc2ccccc2)oc2ccc(O)c(CN(C)C)c12,"inconclusive [inhibitor, single point]",–
Cc1ccc(-c2nc3c4ccccc4n(CC(=O)N4CCN(c5ccccc5F)CC4)c(=O)n3n2)cc1,–,inactive: -12.2%
CCCOc1ccc(CCC(=O)N/N=C/c2ccc([N+](=O)[O-])o2)cc1,–,inactive: -97.9%
Cc1ccccc1CNC(=O)c1cnc2sc(N3CCOCC3)nn2c1=O,"inconclusive [inhibitor, single point]",–
Cc1cccc(C2=NN(c3ccccc3)[C@@H](C(=O)N3CCOC3=O)[C@@H]2c2ccc(Cl)cc2)c1,–,inconclusive: -30.1% [inhibitor]
Cc1cccc(Cn2c(C(C)(C)C)cc3cccnc32)c1,active: 20.6 µM,–
CC(NC(=O)Cc1ccsc1)c1ccc(Cl)cc1Cl (stereo unspecified),–,inactive: -16.2%
CC(=O)c1cccc(NC(=O)COC(=O)COc2c(Cl)cc(Cl)c3ccc(C)nc23)c1,"inconclusive [inhibitor, single point]",–
NS(=O)(=O)c1ccc(CNC(=O)c2cc(S(=O)(=O)N3CCOCC3)c(Cl)cc2Cl)cc1,–,inactive: -13.5%
c1ccc(-c2nnc(CSc3ccc4c(c3)OCCO4)o2)cc1,"inconclusive [inhibitor, single point]",–
COCC(C)NCc1cc2ccc(OC)cc2nc1N1CCN(c2ccc(F)cc2)CC1 (stereo unspecified),active: 13 µM,–
Cc1ccc(-n2nnnc2CNC(=O)C(C)(C)C)cc1C,–,inactive: -10.4%
Cc1cc(S(=O)(=O)N2CCCC(N(C)CCc3ccccn3)C2)c(C)cc1Cl (stereo unspecified),active: 20.6 µM,–
CSc1ccc(C(=O)/C=C/c2ccc(N)cc2)cc1,"inconclusive [inhibitor, single point]",–
COc1ccc2ccccc2c1/C=N/NC(=O)c1nnn(-c2nonc2N)c1C(C)C,"inconclusive [inhibitor, single point]",–
O=[N+]([O-])c1cc(/C=N/n2c(-c3cccnc3)n[nH]c2=S)ccc1Cl,"inconclusive [inhibitor, partial curve, poor fit]",–
CC(C)C(N)c1csc(Nc2ccc(C(=O)N(C)Cc3ccccc3)cn2)n1 (stereo unspecified),"inconclusive [inhibitor, single point]",–
